Data as given in the RNAGym collection of RNA variant scans (doi:10.7554/elife.90254).
Read counts are not given, so values of variants with three or more changes are uncertain.

B1: LINE1-mini (parent)
chain: GGCAGAGCUCAACACAGCGUGGCAAAGUGGCUGUGGCUAGACUGCC

Variants of: B1
Test: self-cleavage, relative activity (ratio to wild type); higher = more cleavage; in vitro, sequencing; the parent is a self-cleaving ribozyme

Question: For G7C A14C A24U C46A, which self-cleavage is on record?
Answer: 0.07

Question: Which self-cleavage does the source give for C10A G21U G22U A24C C31G U43G G44A here?
Answer: 0.02

Question: For A16U G19C U28C G36U C42A, which self-cleavage is on record?
Answer: 0.09

Question: With G17C C23A C37U as the variant, how does the self-cleavage read?
Answer: 0.04

Question: For C3A G7A U9G U20G A39G C42U, which self-cleavage is on record?
Answer: 0.8

Question: Which self-cleavage does the source give for A6C C8A G19U G30U C37A here?
Answer: 0.01

Question: Which self-cleavage does the source give for G2U G5U C37U A39C G40A here?
Answer: 0

Question: Which self-cleavage does the source give for A12U A14G A39C A41C here?
Answer: 0.05

Question: For G2C G21U G40U, which self-cleavage is on record?
Answer: 0.12

Question: Which self-cleavage does the source give for G17U C18U A39C C46G here?
Answer: 0.02

Question: Which self-cleavage does the source give for A26C A41C C46U here?
Answer: 0.07

Question: With C3G G21A U34A as the variant, how does the self-cleavage read?
Answer: 0.03

Question: For C8U C42U G44U C46G, which self-cleavage is on record?
Answer: 0.06

Question: Which self-cleavage does the source give for U9C C23A U34A here?
Answer: 0.03

Question: For A14U A24U A26G, which self-cleavage is on record?
Answer: 0.55

Question: Which self-cleavage does the source give for G17C C18A G19C C23A A25G here?
Answer: 0.92

Question: For G2A A16G G35U, which self-cleavage is on record?
Answer: 0.55

Question: With C8G A39G C45G as the variant, how does the self-cleavage read?
Answer: 0.01

Question: Which self-cleavage does the source give for U9A C13U C46A here?
Answer: 0.24

Question: Which self-cleavage does the source give for C3A A4U C10U U20A here?
Answer: 0.11

Question: With G7U A25C C37U as the variant, how does the self-cleavage read?
Answer: 0.02

Question: With C13G A16G G35U as the variant, how does the self-cleavage read?
Answer: 0.05

Question: Which self-cleavage does the source give for A12G A16G G17C U20C G22A here?
Answer: 0.02

Question: For C3G G22C A41G, which self-cleavage is on record?
Answer: 0.09

Question: With A26U C31U C42U as the variant, how does the self-cleavage read?
Answer: 0.03

Question: With G2A C10U C15A G17A G36U G44C as the variant, how does the self-cleavage read?
Answer: 0.04

Question: For G5C A6G A14C G22U C37A, which self-cleavage is on record?
Answer: 0.02

Question: With A6U G44U C46G as the variant, how does the self-cleavage read?
Answer: 0.33

Question: For G1A C10G G19A C31A, which self-cleavage is on record?
Answer: 0.04

Question: With A16C U32C C46A as the variant, how does the self-cleavage read?
Answer: 0.06

Question: For A4U C10A G19A G21U G44U, which self-cleavage is on record?
Answer: 0.04

Question: Which self-cleavage does the source give for A11G C23A A25C C45G here?
Answer: 0.05

Question: Which self-cleavage does the source give for C23A A24C G30U G35U here?
Answer: 0.02

Question: For A11U G21A G35A G40U, which self-cleavage is on record?
Answer: 0

Question: With A11U G35C U43A C45A as the variant, how does the self-cleavage read?
Answer: 0

Question: With G1A G19U C23U G30A U38G A41U U43G as the variant, how does the self-cleavage read?
Answer: 0.06

Question: Which self-cleavage does the source give for C18U G33A C42U C45A here?
Answer: 0.02

Question: For G19C U28G G33A U34G, which self-cleavage is on record?
Answer: 0.02

Question: With A14G G21A G22C C23U A26G G33A as the variant, how does the self-cleavage read?
Answer: 0.03

Question: With G7A G22A G30C G35C as the variant, how does the self-cleavage read?
Answer: 0.11

Question: For A4U G5C A14C G22U, which self-cleavage is on record?
Answer: 0.06

Question: With G19U G27C C42U as the variant, how does the self-cleavage read?
Answer: 0.1

Question: With U28C A39C G40U U43C as the variant, how does the self-cleavage read?
Answer: 0.03

Question: Which self-cleavage does the source give for G5U A26C C37A here?
Answer: 0.1

Question: For U28C G33C G40A A41C, which self-cleavage is on record?
Answer: 0.01

Question: With G5U C15U G29U U43A C45A as the variant, how does the self-cleavage read?
Answer: 0

Question: For G2C C18A G36U, which self-cleavage is on record?
Answer: 0.02

Question: For A11C C13U G40C A41U, which self-cleavage is on record?
Answer: 0.04

Question: Which self-cleavage does the source give for G2C A6G C10A G29C U43G C45G here?
Answer: 0

Question: With G2C C18G C37U as the variant, how does the self-cleavage read?
Answer: 0.04

Question: For A26C U28C C31U, which self-cleavage is on record?
Answer: 0.05

Question: For G2A G5U G30C, which self-cleavage is on record?
Answer: 0.31

Question: Which self-cleavage does the source give for A4C G36U C42G here?
Answer: 0.02

Question: Which self-cleavage does the source give for C3U G21U C37U A39U C42G here?
Answer: 0.01

Question: Which self-cleavage does the source give for A16U A25C G30C G35C here?
Answer: 0.11

Question: With G1U G2U A6G C31A as the variant, how does the self-cleavage read?
Answer: 0.01

Question: With C3A G19U U28C C46G as the variant, how does the self-cleavage read?
Answer: 0.17

Question: Which self-cleavage does the source give for C23A U43G C45G here?
Answer: 0.11

Question: With G21U U32A A41G C45A as the variant, how does the self-cleavage read?
Answer: 0.01

Question: For G1C C8G C18A A26G U32A, which self-cleavage is on record?
Answer: 0

Question: With G7A C8G G29A C31A as the variant, how does the self-cleavage read?
Answer: 0

Question: Which self-cleavage does the source give for A14G G17A A25C G33C G36C here?
Answer: 0.02

Question: Which self-cleavage does the source give for G22A C37A C46U here?
Answer: 0.05

Question: With G1U C8A G21A C42U as the variant, how does the self-cleavage read?
Answer: 0.4

Question: Which self-cleavage does the source give for G1A C3U G33U here?
Answer: 0.58

Question: With A6U G21C G36A as the variant, how does the self-cleavage read?
Answer: 0.14

Question: For U9C A14G G33U, which self-cleavage is on record?
Answer: 0.03

Question: With G19A A26C G27U C46A as the variant, how does the self-cleavage read?
Answer: 2.03

Question: For C37U U38G C46A, which self-cleavage is on record?
Answer: 0.04

Question: With G17A G29A G33C as the variant, how does the self-cleavage read?
Answer: 0.03

Question: Which self-cleavage does the source give for C10A A41C G44U C45G here?
Answer: 0.05

Question: Which self-cleavage does the source give for A4C A25U A26U C37U here?
Answer: 0.52

Question: For C3U G17C G22U C31U, which self-cleavage is on record?
Answer: 0.01

Question: Which self-cleavage does the source give for G17U C18A G35U here?
Answer: 0.07

Question: Which self-cleavage does the source give for A6U C15U G19A A25U G29U here?
Answer: 0.34

Question: For A4U U9A A12U A14C C15G U38A, which self-cleavage is on record?
Answer: 0.23

Question: Which self-cleavage does the source give for G1U A16G G19U G27A here?
Answer: 0.1

Question: With A6G U9C C15U C31G as the variant, how does the self-cleavage read?
Answer: 0.01

Question: With A4U A12C A24U U32G as the variant, how does the self-cleavage read?
Answer: 0.03

Question: With A4U A25G U34C as the variant, how does the self-cleavage read?
Answer: 0.05

Question: For A14G G17C A26G G44A, which self-cleavage is on record?
Answer: 0.03

Question: Which self-cleavage does the source give for A26C G30C C42A here?
Answer: 0.06

Question: Which self-cleavage does the source give for G17C A26U C42A here?
Answer: 0.06

Question: For G2C U43C G44A, which self-cleavage is on record?
Answer: 0.06
